# Measured values taken from ChEMBL document CHEMBL1201862, “PubChem BioAssay data set” (2004).
# System: NCI-H322M
# Test: NCI anticancer screen, dose series, 48 h
row,SMILES,GI50
1,c1ccc(C2=NCCc3cc4c(cc32)OCO4)cc1,inactive: > 100 µM
2,O=C(Nc1nnc(-c2ccc(Cl)cc2)o1)C(SC(=S)N1CCCCC1)c1ccccc1 (stereo not given),inactive: 20.7 µM
3,COC1CCC(CO)OO1 (stereo not given),inactive: 42 µM
4,COc1cccc(/C=N/C23CC4CC(CC(C4)C2)C3)c1,inactive: > 100 µM
5,O=C(CC1=NCCN1)c1ccccc1,inactive: > 750 µM
6,Cc1ccc(S(=O)(=O)N/N=C2/C3C(CC2(C)C)C2(C)CCCC3(C)C2O)cc1 (stereo not given),inactive: 19.1 µM
7,CC1CNC(c2ccc(CN3CCC(CCCC4CCN(Cc5ccc(C6=NC(C)CN6)cc5)CC4)CC3)cc2)=N1 (stereo not given),inactive: 29.6 µM
8,CCCCCCCCCCCC(=O)N(CCCCCCCCC)CC(O)C(O)C(OC1OC(CO)C(O)C(O)C1O)C(O)CO (stereo not given),inactive: 20.9 µM
9,CCCCCCCC(=O)OC[n+]1cccc(-c2c(COC(=O)NC(C)C)c(COC(=O)NC(C)C)c3n2CCC3)c1,inactive: > 100 µM
10,C#CCSc1nc(N)c2ncn(C3OC(CO)C(O)C3O)c2n1 (stereo not given),inactive: > 100 µM
11,COc1cc(C(c2cc3c(cc2O)OCO3)N2CCCCC2)cc(OC)c1OC (stereo not given),inactive: 25.9 µM
12,O=C(NC1C(O)C(O)C(CO)OC1n1cc(F)c(=O)[nH]c1=O)OCc1ccccc1 (stereo not given),inactive: > 100 µM
13,CCCCCCCCCCCCCCCC(=O)N[C@H]1CCc2cc(OC)c(OC)c(OC)c2-c2ccc(SC)c(=O)cc21,active: 0.48 µM
14,N#CCN(Cc1ccccc1)[C@@H]1CCC[C@]1(O)C#Cc1ccc2c(c1)OCO2,inactive: 17.7 µM
15,CCOC(=O)/C(=C\c1ccc[nH]1)C(=O)c1ccccc1,inactive: > 100 µM
16,COc1ccc2nc3cc([N+](=O)[O-])ccc3c(NNc3ccccc3)c2c1,inactive: 41.8 µM
17,O=C1OC(c2ccccc2)=N/C1=C\c1ccccc1,inactive: > 100 µM
18,Clc1ccc(Cl)c(/N=N\c2cc3c4c(c2)CCN4CCC3)c1,inactive: > 10 µM
19,Clc1ccc(-c2nc3ccc4ccccc4c3c3c2CCCC3)cc1,inactive: > 100 µM
20,N#CSCc1cccc(Nc2cc(=O)[nH]c(=O)[nH]2)c1,inactive: 49.3 µM
21,Clc1ccccc1C1=NN(c2ccccc2)C2c3ccccc3OCC12 (stereo not given),inactive: > 100 µM
22,COc1ccc(/C=C2\CCC(CCN(C)C)(C3=CCCC3)C2=O)cc1Br (stereo not given),inactive: 9.89 µM
23,Cn1cc(NC(=O)c2cc(NC(=O)Nc3cc(C(=O)Nc4cc(C(=O)NCCC(=N)N)n(C)c4)n(C)c3)cn2C)cc1C(=O)NCCC(=N)N,inactive: 48.8 µM

row,SMILES,GI50
1,C#CCN1CCN(C(=S)N/N=C(\C)c2ccccn2)CC1,active: 0.22 µM
2,COC(=O)[C@H](CCSC)NC(=O)N[C@H](C)c1ccccc1,inactive: > 100 µM
3,C/C(CC(=O)Nc1cc(Cl)c(Cl)cc1Cl)=N\NC(N)=O,inactive: > 100 µM
4,O=c1ccn(CC2(CO)CCC2)c(=O)[nH]1,inactive: > 100 µM
5,O=C1OC2C=CC1C1(CCOC1=O)C2 (stereo not given),inactive: > 100 µM
6,CC(C)c1cc2c(O)c(c1)Cc1cc(C(C)C)cc(c1O)Cc1cc(C(C)C)cc(c1O)Cc1cc(C(C)C)cc(c1O)C2,inactive: > 100 µM
7,O=C1c2ccccc2CC12Cc1cc3c(cc1C2=O)CCC3 (stereo not given),inactive: > 100 µM
8,CC(=O)O[C@H]1CC[C@@]2(C)C(=CC[C@@H]3C2CC[C@]2(C)Nc4nc5ccccc5cc4CC32)C1 (stereo not given in full),inactive: 8.47 µM
9,COc1ccc(-c2c(C(C)=O)c(-c3ccccc3)n(C3OC(CO)C(O)C(O)C3O)c(=S)c2C#N)cc1 (stereo not given),inactive: > 100 µM
10,CN(CC(=O)O)c1ncc2c(n1)-c1ccccc1OC2,inactive: > 100 µM
11,COc1ccc(-c2nc3ccccc3s2)cc1OC,inactive: 15.5 µM
12,Cc1nc(C(=O)O)c2ccccc2n1,inactive: > 100 µM
13,BrCC[P+](c1ccccc1)(c1ccccc1)c1ccccc1,inactive: 18.9 µM
14,COc1ccc2cc(C(=O)Nc3ccc(O)c(C(=O)O)c3)ccc2c1OC,inactive: > 100 µM
15,N#CCCN(CCC#N)c1ccc(/C=C2\N=C(c3ccccc3)N(c3ccc(Cl)cc3)C2=O)cc1,inactive: 65.6 µM
16,O=C1OC2(CC1C1(O)C3CC4CC(C3)CC1C4)C1CC3CC(C1)CC2C3 (stereo not given),inactive: 21.4 µM
17,Cc1cn2c(/C=N/NC(=N)N)c(-c3cc([N+](=O)[O-])c(Cl)cc3Cl)nc2s1,inactive: 2.1 µM
18,C(=N\c1cc2cc(Sc3ccccc3)ccc2[nH]1)/c1ccccc1,inactive: > 12.5 µM
19,CSCCCS/C1=C/CCCCCCCCCC1,inactive: > 100 µM
20,CCCCCCCCCCCCCCC(O)C[N+](C)(CCO)CCO (stereo not given),inactive: 15.1 µM
21,Cc1nc(O)nc(NNCc2ccc(Cl)cc2)c1C(=O)Nc1ccc(Cl)cc1,inactive: > 100 µM
22,COC1C(OC(C)=O)CC(=O)OC(C)C/C=C/C=C\C(O)C(C)CC(CC=O)C1OC1OC(C)C(OC2CC(C)(O)C(OC(=O)CC(C)C)C(C)O2)C(N(C)C)C1O (stereo not given),inactive: > 100 µM and inactive: 67.5 µM

# Where “and” joins values, the source holds several entries; their conditions need not be identical. Equal values may be shown once.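 These data come from cells grown in 96-well plates and exposed to compound for 48 hours at five concentrations. GI50 marks 50% less growth.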 Calls of active or inactive are those of the source. Rule as the data show it: active = GI50 up to about 1.1 µM and inactive = higher.
